# Results published in publication PMC6919601, “Identification of Plasmodium dipeptidyl aminopeptidase allosteric inhibitors by high throughput screening” (PLoS ONE, 2019).
# Out of some 110,000 compounds screened, about 230 (0.21%) showed an effect of 50% or more. The list shows a part of the results.
# Target: DPAP1 (Plasmodium falciparum, UniProt Q8IIJ9)
# Assay: primary screen, percent inhibition; read by cleavage of a fluorogenic dipeptide substrate; higher = more effect of the substance
# Parameters: species or system P. falciparum D10 trophozoite lysates; single well
# 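Also: 30 min substrate incubation versus DMSO and 10 µM JCP410 controls.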
# Chain of DPAP1 (Q8IIJ9 whole entry, looked up): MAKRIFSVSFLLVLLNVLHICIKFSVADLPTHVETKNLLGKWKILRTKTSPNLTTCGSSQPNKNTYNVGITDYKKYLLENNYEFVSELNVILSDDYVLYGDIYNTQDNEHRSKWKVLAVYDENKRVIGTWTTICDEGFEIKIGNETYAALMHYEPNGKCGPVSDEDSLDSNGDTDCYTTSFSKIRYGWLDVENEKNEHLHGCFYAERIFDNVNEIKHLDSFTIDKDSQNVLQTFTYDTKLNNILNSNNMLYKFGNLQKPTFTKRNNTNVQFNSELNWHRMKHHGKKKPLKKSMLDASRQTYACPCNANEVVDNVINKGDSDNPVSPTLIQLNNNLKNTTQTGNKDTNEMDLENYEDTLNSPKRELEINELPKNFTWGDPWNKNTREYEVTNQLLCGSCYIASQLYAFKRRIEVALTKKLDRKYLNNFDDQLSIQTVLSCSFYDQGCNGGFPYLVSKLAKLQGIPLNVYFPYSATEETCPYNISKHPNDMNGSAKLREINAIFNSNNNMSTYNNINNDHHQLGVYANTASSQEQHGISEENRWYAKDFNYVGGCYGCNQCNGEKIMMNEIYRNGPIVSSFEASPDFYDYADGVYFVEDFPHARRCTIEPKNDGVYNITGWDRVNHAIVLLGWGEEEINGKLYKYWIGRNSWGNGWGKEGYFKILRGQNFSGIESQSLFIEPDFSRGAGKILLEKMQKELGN
row,Structure (SMILES),% Inhibition @ 10 uM
1,c1ccc(CC2CCN(Cc3ccc4c(c3)OCO4)CC2)cc1,0.605%
2,CCOc1ccc(CNC(=O)c2ccc(CS(=O)c3ccc(Cl)cc3)o2)cc1 (centres unmarked),2.83%
3,CCOc1ccc(C(=O)NCc2ccccc2)cc1S(=O)(=O)N1CCCCCC1,2.22%
4,Cc1nn2c(=O)cc(COc3ccc(/C=C4/C(=N)N5C=CSC5=NC4=O)cc3)nc2s1,-3.95%
5,COc1ccc(C2C(C(=O)N3CCOCC3)c3cc(OC)c(OC)cc3C(=O)N2C)cc1OC (centres unmarked),2.06%
6,COCc1cc(C)nc2sc3c(c12)NC(c1ccc(F)cc1)NC3=O (centres unmarked),-0.0619%
7,COc1ccc(S(=O)(=O)Nc2sc3c(c2C(N)=O)CCC3)cc1OC,5.11%
8,C=C(C)Cn1c(COc2ccc(Cl)cc2)nnc1SCC(=O)O,-7.65%
9,CCOc1ccc(C2=C(C)SC(/N=C/c3ccco3)=NN2)cc1,-7.59%
10,Cc1ccc(C(=O)Nc2cnc3ccccn3c2=O)cc1,-5.2%
11,CC(C)=C(NC(=O)c1ccccc1)C(=O)Nc1ccc(C(=O)O)cc1,-4.43%
12,CCOc1ccc(-c2[nH]nc3c2C(c2cccnc2)C(C#N)=C(N)O3)c(OCC)c1 (centres unmarked),4.3%
13,CC1=C(C(=O)Nc2ccc(Cl)cc2)C(c2cccc(F)c2)n2nc(CCCO)nc2N1 (centres unmarked),3.86%
14,O=C(Nc1cccc2c1CCCC2)c1ccc(Br)cc1,-7.01%
15,O=C(NCc1ccccc1)c1cc(-c2ccc(Cl)c(Cl)c2)on1,-7.15%
16,COC(=O)c1sccc1NC(=O)c1noc2c1COc1ccccc1-2,1.68%
17,O=C(c1ccccc1Cl)N(C1CCCCC1)C1CCCCC1,6.8%
18,COc1cc(-c2cc(NC(=O)c3cc4c(=O)oc5ccc(C)cc5c4s3)on2)cc(OC)c1OC,5.21%
19,COc1ccc(-c2nn(-c3nc4ccccc4s3)c(O)c2/C=N/CCN2CCOCC2)cc1,0.884%
20,CC(=O)Nc1ccc2oc(-c3ccc(Br)c(C)c3)nc2c1,-0.511%
21,Cc1cc(C)n2nc(CC(=O)NC3CCCCCCC3)nc2n1,4.47%
22,CCN(CC)CCCNC(=O)Cn1ncc2c1-c1ccccc1OC2,4.88%
23,CC(=O)OCc1cc(=O)n(C)c(=O)n1C,-2.12%
24,CC(=O)c1ccc(NC(=O)C2C(C)(C)C2(C)C)cc1,-3.69%
25,Cc1nn(C)cc1CNC(=O)c1cc2nc(-c3cccs3)cc(C(F)(F)F)n2n1,0.206%

row,Structure (SMILES),% Inhibition @ 10 uM
1,CC1CCN(S(=O)(=O)c2cn(CC(=O)NC3CCCC(C)C3C)c(=O)c3ccccc23)CC1 (centres unmarked),0.559%
2,CC(C)(C)C#CC(=O)c1ccc(Cl)cc1,-2.06%
3,CC(C)C(=O)Nc1sc2c(c1C(=O)O)CC(C)(C)OC2,-7.98%
4,COc1ccc(-c2c3c(=O)n(C)c(=O)n(C)c3cn2Cc2ccccc2)cc1,-0.603%
5,Sc1nc(Nn2cnnc2)c2ccccc2n1,0.379%
6,NC(=O)c1c(NC(=O)C2CCC2)sc2c1CCCCC2,7.35%
7,CNc1cc(=O)n(C2CCCCC2)c(=O)n1C1CCCCC1,-4.69%
8,CC1(C)CC(CN)(c2ccccc2)CCO1 (centres unmarked),2.4%
9,COc1ccc(-c2nc(-c3ccc(OC)cc3)c(CC(=O)O)s2)cc1,9.95%
10,COc1ccc(-c2csc(Nc3ccc(N)cc3)n2)cc1,-6.43%
11,Clc1ccc(N2CCN(Cc3ccc4ccccc4c3)CC2)cc1,-3.65%
12,COc1cc(C(=O)NC2=NC(=O)CC(c3ccc(Cl)cc3)N2)cc(OC)c1OC (centres unmarked),1.66%
13,Cc1cc(C(=O)NCC(N)=O)c2c(C)nn(-c3ccccc3)c2n1,6.84%
14,Cc1c(C)n(Cc2ccccc2)c2ccc(C(=O)N3CCC4(CC3)OCCO4)cc12,4.11%
15,Cc1nn(-c2ccc(F)cc2)c(O)c1/C=N/c1ccc(Cl)c(C(=O)O)c1,-2.16%
16,COc1ccc(C(=O)Nc2c(C)cc(C)cc2C)cc1OC,2.91%
17,COc1ccc(CCNC(=O)C2=C(C)C(=O)OC23CCC(C)CC3)c(OC)c1 (centres unmarked),1.55%
18,CCN(CC)c1ccc2cc3c(oc2c1)c(C#N)c(=N)n1c2ccccc2nc31,0.722%
19,CC1(C)CC(=O)C(/C=N/CCN2CCN(C(=O)c3ccc(F)cc3)CC2)=C(O)C1,-3.9%
20,COc1cc(F)c(C[C@H](NC(=O)c2ccc(-c3ccccc3Cl)nc2)C(=O)NCC#N)c(F)c1,1.35%
21,CSc1ncc(C(=O)NC2CCCCCC2)c(C)n1,-0.571%
22,COc1ccc(C(=O)Nc2ccc(S(=O)(=O)Nc3ccc(C)cc3C)cc2)cc1,-0.891%
23,COc1ccc(-c2cc(C(=O)N3CCCC3C(=O)O)c(C)o2)cc1OC (centres unmarked),2.99%
24,CCn1c2ccccc2c2cc(CNCCc3ccc(Cl)cc3)ccc21,0.219%
25,COCCCNC(=O)CSc1nc2c(sc3ccccc32)c(=O)n1CCCOC(C)C,6.05%

row,Structure (SMILES),% Inhibition @ 10 uM
1,CCCc1nc2c(c3c1[nH]c1ccccc13)C(=O)CC(C)(C)C2,-3.74%
2,COc1cccc(CNCc2ccc(SC)cc2)c1OC,-2.87%
3,CCN(CC)c1nc2c(S(=O)(=O)c3ccc(C(C)C)cc3)nnn2c2ccsc12,-2.26%
4,O=C(C1CCCN(c2ncnc3c2nc2n3CCCCC2)C1)N1CCc2ccccc2C1 (centres unmarked),6.99%
5,O=C(CN1C(=O)C2CC=CCC2C1=O)N1CCN(Cc2ccccc2)CC1 (centres unmarked),3.54%
6,O=C(CN1C(=O)c2cccc3cccc1c23)Nc1ccc(S(=O)(=O)Nc2cccc(Cl)c2)cc1,10.7%
7,COc1ccc(OCCOCCN2CCOCC2)cc1,-4.91%
8,Cc1nc(N2CCC(Cc3ccccc3)CC2)c2c(C)c(C)sc2n1,4.01%
9,Cc1ccc(CN(CC(=O)NC2CC2)S(=O)(=O)c2ccc(C)cc2)cc1,-3.21%
10,CC1CCCCN1C(=O)C1CCN(c2ncnc3c2nc2n3CCCCC2)CC1 (centres unmarked),1.43%
11,CCOc1cc2c(cc1OCC)C(c1c(O)cccc1OC)NCC2 (centres unmarked),-1.52%
12,COC(=O)c1sc2nc3n(c(=O)c2c1C)N=C(c1cccc(OC)c1)CS3,7.77%
13,CC1CN(C(C)C)C(C)CC1OC(=O)c1ccccc1 (centres unmarked),-0.597%
14,Cc1nc2cc(-c3ccccc3)nn2c(O)c1C,4.98%
15,COc1cc(C(=O)Nc2cccnc2)ccc1OCc1ccc(Cl)cc1,1.26%
16,O=[N+]([O-])c1ccc(-c2nc3ccccc3nc2-c2ccccc2)cc1,3.32%
17,CC1Cc2cc(/C=C3\N=C(c4ccccc4Cl)OC3=O)ccc2O1 (centres unmarked),4.54%
18,CCOC(=O)N1CCN(C(c2ccncc2)c2c(NC(=O)c3ccccc3)sc(C)c2C)CC1 (centres unmarked),-9.57%
19,O=C1CC(c2ccccc2)CC(=O)C1=CNCCN1CCN(C(=O)Cc2ccccc2)CC1 (centres unmarked),-5.34%
20,O=C(c1ccc(F)cc1)N1CCN(CCN2C(=O)c3cccc4cccc(c34)C2=O)CC1,4.49%
21,CC(C)(C)c1ccc2oc(-c3ccc(NC(=O)c4cccc5ccccc45)cc3)nc2c1,3.9%
22,COc1ccc(NC(=O)CSc2nc3nncc-3c(O)n2-c2ccccc2)cc1,-2.77%
23,O=C1CSC(c2ccc(Cl)cc2Cl)c2c(O)nn(C3CCCC3)c2N1 (centres unmarked),1.31%
24,N#CC1=C(N)OC2=C(C(=O)CCC2)C1c1cccc(Cl)c1Cl (centres unmarked),-5.74%
25,CN(C)CCCNC(=O)c1ccccc1Cl,-3.32%

row,Structure (SMILES),% Inhibition @ 10 uM
1,COCCNC(=O)/C(C#N)=C/c1c(Oc2ccc(C(C)(C)C)cc2)nc2ccccn2c1=O,3.12%
2,COc1ccc(/C=C/C(=O)NCc2cccnc2)cc1S(=O)(=O)N1CCCCC1,4.67%
3,O=C(c1sc2cccc(Cl)c2c1Cl)N1CCOCC1,0.751%
4,CCOc1cc(CN2CC(C)OC(C)C2)ccc1OC (centres unmarked),-7.56%
5,O=C1/C(=C\c2ccc(Cl)cc2Cl)S(=O)(=O)c2ccccc21,-5.63%
6,O=C(Nc1ccc2oc(-c3ccc(Cl)cc3)nc2c1)c1ccco1,3.48%
7,O=C(CSc1nc2c(c(=O)n1CCc1ccccc1)SCC2)NCc1ccco1,5.8%
8,O=C(/C=C/c1cn(CC(O)CN2CCOCC2)c2ccccc12)c1ccc(Br)cc1 (centres unmarked),-5.36%
9,C=CCn1cnc2c(NCc3ccccc3)ncnc21,1.91%
10,COc1ccccc1C1CC2=NC(C)=C(C(=O)OCCOC(C)C)C(c3ccsc3)C2=C(O)C1 (centres unmarked),0.565%
11,Cc1nc(C)c(C(=O)Nc2nc(C)c(C)s2)s1,-0.946%
12,CCCCN(CCCC)c1ncnc2c1sc1nc3c(cc12)COC(C)(C)C3,6.91%
13,CCN(CC)C(=O)C1CCCN(Cc2ccc(-c3ccccc3)cc2)C1 (centres unmarked),4.67%
14,CCOC(=O)c1conc1-c1ccc(Cl)cc1,-1.54%
15,O=C(CSn1nnnc1-c1ccc(OC(F)(F)F)cc1)NCc1ccccc1,-6.28%
16,Cn1c(C(=O)NC2CCCCCC2)cc2sc(Cl)cc21,-12.6%
17,CCCOc1ccc2oc(=O)c3c(c2c1)CCCN3C(=O)CN1CCC(Cc2ccccc2)CC1,14.6%
18,Cc1ccc2cnn(CC(=O)NC3CCCCC3)c2c1,-2.88%
19,CC(=O)N1CCc2nc3sc(C(=O)NCCc4ccc(F)cc4)c(N)c3c(C(F)(F)F)c2C1,5.49%
20,Cn1nnnc1SCCNCc1ccccc1F,-3.49%
21,Cc1c(C(=O)N2CCN(C)CC2)[nH]c2ccc(OCc3ccccc3)cc12,-1.68%
22,CCc1ccc(-c2csc(NC(=O)C3C4CCC(C4)C3C(=O)O)n2)cc1 (centres unmarked),2.44%
23,CC1CCCC(C)N1CCNC(=O)Cn1nc(-c2ccccc2)ccc1=O (centres unmarked),5.16%
